# Reference: the supplement of paper PMC8728848
# Some of the results follow.
# B1: CFEM-SCL (Saccharomyces cerevisiae), O13547 (protein)
# chain: MRATTLLSSVVSLALLSKEVLATPPACLLACVAQVGKSSSTCDSLNQVTCYCEHENSAVKKCLDSICPNNDADAAYSAFKSSCSEQNASLGD
# Legend:
# Experiment in all cases: glycan array binding signal (z-score within array); higher = stronger binding
# Settings in all cases: glycan notation: IUPAC condensed, linker removed
# [1] = target: Fuc(a1-2)[GalNAc(a1-3)]Gal(b1-3)GlcNAc(b1-3)GalNAc
# Summary of the method: (§1)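 From the Consortium for Functional Glycomics database, 3228 arrays were curated, keeping only those whose protein sequence was available. Binding is given as a within-array Z-score averaged across arrays sharing a protein sequence and across linkers. Negative Z-scores can be read as non-binding.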
# [2] = target: Fuc(a1-2)[GalNAc(a1-3)]Gal(b1-3)GlcNAc(b1-6)GalNAc
# Summary of the method: as §1
# [3] = target: Fuc(a1-2)[GalNAc(a1-3)]Gal(b1-4)Glc
# Summary of the method: as §1
# [4] = target: Fuc(a1-2)[GalNAc(a1-3)]Gal(b1-4)GlcNAc
# Summary of the method: as §1
# [5] = target: Fuc(a1-2)[GalNAc(a1-3)]Gal(b1-4)GlcNAc(b1-2)Man
# Summary of the method: as §1
# [6] = target: Fuc(a1-2)[GalNAc(a1-3)]Gal(b1-4)GlcNAc(b1-2)Man(a1-3)[Fuc(a1-2)[GalNAc(a1-3)]Gal(b1-4)GlcNAc(b1-2)Man(a1-6)]Man(b1-4)GlcNAc(b1-4)GlcNAc
# Summary of the method: as §1
# [7] = target: Fuc(a1-2)[GalNAc(a1-3)]Gal(b1-4)GlcNAc(b1-2)Man(a1-3)[Fuc(a1-2)[GalNAc(a1-3)]Gal(b1-4)GlcNAc(b1-2)Man(a1-6)]Man(b1-4)GlcNAc(b1-4)[Fuc(a1-6)]GlcNAc
# Summary of the method: as §1
# [8] = target: Fuc(a1-2)[GalNAc(a1-3)]Gal(b1-4)GlcNAc(b1-3)Gal(b1-4)GlcNAc
# Summary of the method: as §1
# [9] = target: Fuc(a1-2)[GalNAc(a1-3)]Gal(b1-4)GlcNAc(b1-3)Gal(b1-4)GlcNAc(b1-3)Gal(b1-4)GlcNAc
# Summary of the method: as §1
# [10] = target: Fuc(a1-2)[GalNAc(a1-3)]Gal(b1-4)GlcNAc(b1-3)GalNAc
# Summary of the method: as §1
# [11] = target: Fuc(a1-2)[GalNAc(a1-3)]Gal(b1-4)GlcNAc(b1-3)[Fuc(a1-2)[GalNAc(a1-3)]Gal(b1-4)GlcNAc(b1-6)]GalNAc
# Summary of the method: as §1
# [12] = target: Fuc(a1-2)[GalNAc(a1-3)]Gal(b1-4)GlcNAc(b1-6)GalNAc
# Summary of the method: as §1
# [13] = target: Fuc(a1-2)[GalNAc(a1-3)]Gal(b1-4)[Fuc(a1-3)]GlcNAc
# Summary of the method: as §1
# [14] = target: Fuc(a1-2)[GalNAc(a1-3)]Gal(b1-4)[Fuc(a1-3)]GlcNAc(b1-3)GalNAc
# Summary of the method: as §1
# [15] = target: Fuc(a1-2)[GalNAc(a1-4)]Gal(b1-4)GlcNAc
# Summary of the method: as §1
# [16] = target: Fuc(a1-2)[GalNAc(b1-3)]Gal
# Summary of the method: as §1
# Fuc(a1-3)GlcNAc = target: Fuc(a1-3)GlcNAc
# Summary of the method: as §1
# [17] = target: Fuc(a1-3)[Gal(b1-4)]Glc6S
# Summary of the method: as §1
# [18] = target: Fuc(a1-3)[Gal(b1-4)]GlcNAc
# Summary of the method: as §1
# [19] = target: Fuc(a1-3)[Gal(b1-4)]GlcNAc(b1-2)Man
# Summary of the method: as §1
# [20] = target: Fuc(a1-3)[Gal(b1-4)]GlcNAc(b1-2)Man(a1-3)[Fuc(a1-3)[Gal(b1-4)]GlcNAc(b1-2)Man(a1-6)]Man(b1-4)GlcNAc(b1-4)GlcNAc
# Summary of the method: as §1
# [21] = target: Fuc(a1-3)[Gal(b1-4)]GlcNAc(b1-2)Man(a1-3)[Fuc(a1-3)[Gal(b1-4)]GlcNAc(b1-2)Man(a1-6)]Man(b1-4)GlcNAc(b1-4)[Fuc(a1-6)]GlcNAc
# Summary of the method: as §1
# [22] = target: Fuc(a1-3)[Gal(b1-4)]GlcNAc(b1-3)Gal(b1-3)[Fuc(a1-4)]GlcNAc
# Summary of the method: as §1
# [23] = target: Fuc(a1-3)[Gal(b1-4)]GlcNAc(b1-3)Gal(b1-4)[Fuc(a1-3)]GlcNAc
# Summary of the method: as §1
# [24] = target: Fuc(a1-3)[Gal(b1-4)]GlcNAc(b1-3)Gal(b1-4)[Fuc(a1-3)]GlcNAc(b1-3)Gal(b1-4)[Fuc(a1-3)]GlcNAc
# Summary of the method: as §1
# [25] = target: Fuc(a1-3)[Gal(b1-4)]GlcNAc(b1-3)GalNAc
# Summary of the method: as §1
# [26] = target: Fuc(a1-3)[Gal(b1-4)]GlcNAc(b1-6)GalNAc
# Summary of the method: as §1
# [27] = target: Fuc(a1-3)[Gal(b1-4)]GlcNAc(b1-6)[Gal(b1-3)GlcNAc(b1-3)]Gal(b1-4)Glc
# Summary of the method: as §1
# [28] = target: Fuc(a1-3)[Gal(b1-4)]GlcNAc6S
# Summary of the method: as §1
# [29] = target: Fuc(a1-3)[Gal3S(b1-4)]Glc
# Summary of the method: as §1
# [30] = target: Fuc(a1-3)[Gal3S(b1-4)]GlcNAc
# Summary of the method: as §1
# [31] = target: Fuc(a1-3)[Gal3S(b1-4)]GlcNAc6S
# Summary of the method: as §1
# [32] = target: Fuc(a1-3)[GalNAc(b1-4)]GlcNAc
# Summary of the method: as §1
# [33] = target: Fuc(a1-3)[GalNAc(b1-4)]GlcNAc6S
# Summary of the method: as §1
# Fuc(a1-4)GlcNAc = target: Fuc(a1-4)GlcNAc
# Summary of the method: as §1
# Fuc(b1-3)GlcNAc = target: Fuc(b1-3)GlcNAc
# Summary of the method: as §1
# Gal(a1-2)Gal = target: Gal(a1-2)Gal
# Summary of the method: as §1
# Gal(a1-3)Gal = target: Gal(a1-3)Gal
# Summary of the method: as §1
# Gal(a1-3)Gal(b1-3)GlcNAc = target: Gal(a1-3)Gal(b1-3)GlcNAc
# Summary of the method: as §1
# [34] = target: Gal(a1-3)Gal(b1-3)GlcNAc(b1-2)Man
# Summary of the method: as §1
# [35] = target: Gal(a1-3)Gal(b1-3)GlcNAc(b1-2)Man(a1-3)[Gal(a1-3)Gal(b1-3)GlcNAc(b1-2)Man(a1-6)]Man(b1-4)GlcNAc(b1-4)GlcNAc
# Summary of the method: as §1
# [36] = target: Gal(a1-3)Gal(b1-3)GlcNAc(b1-3)GalNAc
# Summary of the method: as §1
# [37] = target: Gal(a1-3)Gal(b1-3)GlcNAc(b1-6)GalNAc
# Summary of the method: as §1
# [38] = target: Gal(a1-3)Gal(b1-3)[Fuc(a1-4)]GlcNAc(b1-2)Man(a1-3)[Gal(a1-3)Gal(b1-3)[Fuc(a1-4)]GlcNAc(b1-2)Man(a1-6)]Man(b1-4)GlcNAc(b1-4)GlcNAc
# Summary of the method: as §1
# Gal(a1-3)Gal(b1-4)Glc = target: Gal(a1-3)Gal(b1-4)Glc
# Summary of the method: as §1
binder,measurement,setting,value
B1,glycan array binding signal (z-score),[1],1.01
same,glycan array binding signal (z-score),[2],-0.289
same,glycan array binding signal (z-score),[3],-0.233
same,glycan array binding signal (z-score),[4],-0.256
same,glycan array binding signal (z-score),[5],-0.31
same,glycan array binding signal (z-score),[6],-0.291
same,glycan array binding signal (z-score),[7],-0.326
same,glycan array binding signal (z-score),[8],-0.339
same,glycan array binding signal (z-score),[9],-0.204
same,glycan array binding signal (z-score),[10],-0.26
same,glycan array binding signal (z-score),[11],-0.325
same,glycan array binding signal (z-score),[12],-0.22
same,glycan array binding signal (z-score),[13],0.231
same,glycan array binding signal (z-score),[14],2.67
same,glycan array binding signal (z-score),[15],-0.314
same,glycan array binding signal (z-score),[16],-0.27
same,glycan array binding signal (z-score),Fuc(a1-3)GlcNAc,-0.151
same,glycan array binding signal (z-score),[17],-0.155
same,glycan array binding signal (z-score),[18],-0.183
same,glycan array binding signal (z-score),[19],-0.048
same,glycan array binding signal (z-score),[20],-0.298
same,glycan array binding signal (z-score),[21],0.004
same,glycan array binding signal (z-score),[22],-0.249
same,glycan array binding signal (z-score),[23],-0.174
same,glycan array binding signal (z-score),[24],-0.244
same,glycan array binding signal (z-score),[25],1.5
same,glycan array binding signal (z-score),[26],2.59
same,glycan array binding signal (z-score),[27],-0.162
same,glycan array binding signal (z-score),[28],-0.014
same,glycan array binding signal (z-score),[29],0.331
same,glycan array binding signal (z-score),[30],-0.234
same,glycan array binding signal (z-score),[31],0.918
same,glycan array binding signal (z-score),[32],-0.142
same,glycan array binding signal (z-score),[33],-0.219
same,glycan array binding signal (z-score),Fuc(a1-4)GlcNAc,-0.205
same,glycan array binding signal (z-score),Fuc(b1-3)GlcNAc,-0.27
same,glycan array binding signal (z-score),Gal(a1-2)Gal,-0.188
same,glycan array binding signal (z-score),Gal(a1-3)Gal,-0.231
same,glycan array binding signal (z-score),Gal(a1-3)Gal(b1-3)GlcNAc,-0.239
same,glycan array binding signal (z-score),[34],-0.15
same,glycan array binding signal (z-score),[35],0.636
same,glycan array binding signal (z-score),[36],-0.327
same,glycan array binding signal (z-score),[37],-0.332
same,glycan array binding signal (z-score),[38],-0.161
same,glycan array binding signal (z-score),Gal(a1-3)Gal(b1-4)Glc,-0.284
